Assay results: PubChem BioAssay AID602310 (National Center for Advancing Translational Sciences (NCATS), 2012)
Among all 410,000 compounds or so, about 310 (0.076%) were called active. The shares of active, inactive and inconclusive entries below differ from those in the screen. The call rests on the fitted dose curve; in most records, active means well fitted curve in the direction sought with a large enough effect; inconclusive means small, poorly fitted or top-dose-only effect; inactive means flat fitted curve, though single readings scatter. Where the call is inconclusive, the potency comes from a doubtful curve fit.

target: DNA dC->dU-editing enzyme APOBEC-3G (Homo sapiens) (UniProt Q9HC16); assay: qHTS for Inhibitors of Vif-A3G Interactions: qHTS; details: HeLa A3G-eYFP + Vif (tagged APOBEC3G with the HIV-1 protein that degrades it), YFP fluorescence, overnight; series mostly up to 46.1 µM; further: nearly all actives have a fitted effect of over 60% in size
Procedure, shortened: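 HeLa cells stably expressing Vif and C-terminally eYFP-tagged A3G, seeded overnight at 37 deg C, then exposed to compound by pintool overnight at 37 deg C. Rise in yellow fluorescence (Ex 488/Em 500-530, Acumen) marks blocked Vif-driven A3G degradation.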
Potency means the concentration at half of the fitted maximal effect; tags describe the fitted curve by direction and shape.

Chain of UniProt Q9HC16 (Q9HC16 whole entry, looked up): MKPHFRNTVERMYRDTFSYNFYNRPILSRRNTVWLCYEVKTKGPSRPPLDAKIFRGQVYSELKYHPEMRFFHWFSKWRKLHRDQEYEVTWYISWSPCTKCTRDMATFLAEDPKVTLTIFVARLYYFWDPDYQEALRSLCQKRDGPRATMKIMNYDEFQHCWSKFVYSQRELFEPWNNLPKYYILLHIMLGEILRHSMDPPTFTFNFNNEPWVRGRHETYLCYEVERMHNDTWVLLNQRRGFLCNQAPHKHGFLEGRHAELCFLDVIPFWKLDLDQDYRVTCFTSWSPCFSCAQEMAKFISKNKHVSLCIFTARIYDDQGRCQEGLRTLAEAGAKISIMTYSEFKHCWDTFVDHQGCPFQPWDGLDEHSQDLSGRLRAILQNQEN

Structure (SMILES) | Potency
COCCNc1ccc(-c2nc(-c3ccco3)no2)cc1[N+](=O)[O-] | inconclusive: 20 µM [inhibitor, single point]
Cc1ccc(-c2nc(C=Nc3ccc(O)cc3)c(O)o2)cc1 | inconclusive: 12.6 µM [inhibitor, single point]
Cc1[nH]n(C)c(=O)c1C(=O)c1c(-c2ccccc2Cl)noc1C | inconclusive: 14.1 µM [inhibitor, single point]
OCCCn1c(-c2ccccc2)csc1=Nc1ccccc1 | inactive
CCC(=O)Nc1cccc(C(=O)/C=C/c2ccccc2)c1 | inconclusive: 10 µM [inhibitor, partial curve, poor fit]
CC(=O)/C(=C/c1ccccc1)C(=O)Nc1ccccc1C | inconclusive: 22.4 µM [inhibitor, single point]
O=C(N/N=C/c1c(O)n(-c2ccccc2Cl)c(=O)c2ccccc12)C1COc2ccccc2O1 (stereo not drawn) | inconclusive: 22.4 µM [inhibitor, single point]
O=C(NCCCO)c1ccc2nc(-c3ccco3)c(-c3ccco3)nc2c1 | inactive
O=C(Nc1ccc(OC(F)(F)F)cc1)c1ccc2c(c1)no[n+]2[O-] | inconclusive: 31.6 µM [inhibitor, single point]
CCS(=O)(=O)Nc1cccc(C2=NN(S(C)(=O)=O)C(c3ccccc3)C2)c1 (stereo not drawn) | inconclusive: 28.2 µM [inhibitor, single point]
O=C(Nc1cc(C(F)(F)F)ccc1N1CCOCC1)c1n[nH]c(=O)c2ccccc12 | inactive
CCOC(=O)/C(C#N)=C\C=C1C=CN(C)C=C1 | inconclusive: 17.8 µM [inhibitor, partial curve, poor fit]
CNc1ccc(-c2nc(-c3ccco3)no2)cc1[N+](=O)[O-] | inconclusive: 3.55 µM [inhibitor, single point]
Cn1c(Cc2ccccc2)nnc1SCC(=O)N1CCN(c2ccccc2)CC1 | inactive
O=C1CSC(=S)N1/N=C/c1cc(Br)c(O)c(Br)c1 | inconclusive: 3.16 µM [inhibitor, single point]
CCOC(=O)N1C/C(=C\c2ccccc2)C(=O)/C(=C/c2ccccc2)C1 | inconclusive: 11.2 µM [inhibitor, partial curve, poor fit]
Cc1ccc(S(=O)(=O)Oc2cccc([N+](=O)[O-])c2)cc1 | inconclusive: 17.8 µM [inhibitor, single point]
COCCn1c(=O)[nH]c2cc(C(=O)Nc3cccc(F)c3)ccc2c1=O | inactive
COc1ccc(F)cc1-c1cc(NC=O)c2ncc(-c3cccc(C(F)(F)F)c3)n2c1 | inconclusive: 3.16 µM [inhibitor, full curve, poor fit]
COC(=O)COc1cccc2c(=O)n(CC(=O)NCc3ccc(F)cc3)ccc12 | inconclusive: 1.78 µM [inhibitor, full curve]
O=C(Nc1cccc2cccnc12)c1ccc(Br)cc1 | inactive
COc1ccc(C(=O)NCCc2cn3ccccc3n2)cc1 | inactive
Cc1coc(NC(=O)CSc2nc(-c3ccc(Cl)cc3)cc(C(F)(F)F)c2C#N)n1 | inconclusive: 3.55 µM [inhibitor, single point]

Structure (SMILES) | Potency
Cc1oc(CC(C)C)cc1C(=O)Nc1cccc2ccccc12 | inconclusive: 35.5 µM [inhibitor, single point]
C=CC1CN2CCC1CC2[C@@H](O)c1ccnc2ccc(OC)cc12 (stereo partly drawn) | inactive
COc1cc(/C=C/C(=O)OCC(=O)N2c3ccccc3CC2C)cc(OC)c1OC (stereo not drawn) | inconclusive: 15.8 µM [inhibitor, single point]
CN(C)c1ccc(C2C=C(c3ccccc3)Nc3nnnn32)cc1 (stereo not drawn) | inconclusive: 12.6 µM [inhibitor, partial curve, poor fit]
CCN(CC)CCN(C(=O)c1cc2c(ccc3ccccc32)oc1=O)c1nc2cc3c(cc2s1)OCCO3 | inconclusive: 35.5 µM [inhibitor, single point]
O=C1/C(=C\c2ccccc2)CN(C(=O)CCN2CCCCC2)C/C1=C/c1ccccc1 | inconclusive: 6.31 µM [inhibitor, single point]
COc1cc(C2CC(=O)N(c3ccc(C)cc3)C(=O)C2)cc(OC)c1OC | inconclusive: 2.24 µM [inhibitor, full curve, poor fit]
C[C@H](NC(=O)[C@@H]1CSC2c3ccccc3C(=O)N21)C(=O)NC1CCCC1 (stereo partly drawn) | active: 5.01 µM
COc1ccc(CCNC(=O)c2nc3ncccn3n2)cc1OC | inactive
C[C@@H](NC(=O)c1coc(=O)c(Br)c1)c1ccccc1 | inconclusive: 12.6 µM [inhibitor, single point]
CCc1ccc(C2c3[nH]c4ccccc4c3CCN2C(=O)c2cc[n+]([O-])cc2)cc1 (stereo not drawn) | inconclusive: 12.6 µM [inhibitor, single point]
O=C1c2cccc(OCc3ccc(F)cc3)c2CCN1Cc1ccccc1 | inactive
NC(N)=N/N=C/c1ccc(Br)cc1 | inconclusive: 10 µM [inhibitor, partial curve, poor fit]
COc1cc(C(=O)Oc2ccccc2/C=N/NC(=O)c2ccc(Cl)cc2)cc(OC)c1OC | inconclusive: 17.8 µM [inhibitor, single point]
Cc1ccc(C)c(NC(=O)CSc2c3c(nc4ccc(Cl)cc24)CCCC3)c1 | inconclusive: 35.5 µM [inhibitor, single point]
Cc1cc(C(=O)NN=C2C3CC4CC(C3)CC2C4)c2ccccc2n1 | inconclusive: 35.5 µM [inhibitor, single point]
O=C1C=CC2(C=C1)O[C@H](Cc1ccccc1)[C@@H](Cc1ccccc1)O2 | inconclusive: 1.26 µM [inhibitor, full curve, poor fit]
COc1ccc(-c2sc3cc4c(cc3c2C#CC2(O)CCCCC2)OCO4)cc1 | inactive
CC(=O)c1c(C)oc2ccc(N(C(C)=O)S(=O)(=O)c3ccc(Cl)c([N+](=O)[O-])c3)cc12 | inactive
COc1ccc(Br)cc1C(C[N+](=O)[O-])c1c(N)n(C)c(=O)n(C)c1=O (stereo not drawn) | inconclusive: 12.6 µM [inhibitor, single point]
CNC(=O)CSc1nc(-c2ccccc2)c(-c2ccccc2)[nH]1 | inconclusive: 17.8 µM [inhibitor, single point]
COc1ccc(NC(=O)Cn2nnc(-c3ccccc3NC(=O)c3ccco3)n2)cc1 | inconclusive: 2.24 µM [inhibitor, full curve, poor fit]
Cc1cccnc1Nc1nc(-c2ccc(O)c(O)c2)cs1 | inconclusive: 35.5 µM [inhibitor, single point]

Structure (SMILES) | Potency
CC(C)c1ccc(S(=O)(=O)/N=C2/C=C(Sc3ncn[nH]3)C(=O)c3ccccc32)cc1 | inconclusive: 10 µM [inhibitor, partial curve]
O=C1CCCC2=C1C(c1ccc(Br)cc1)c1c([nH]c(=S)[nH]c1=O)N2 (stereo not drawn) | inactive
CC(C)(C)c1ccc2c(c1)OC(C(=O)N/N=C/c1ccc([N+](=O)[O-])o1)CO2 (stereo not drawn) | inconclusive: 15.8 µM [inhibitor, single point]
CCOc1ccc(NS(=O)(=O)c2ccc3[nH]c4c(c3c2)CCCC4)cc1 | inconclusive: 35.5 µM [inhibitor, single point]
CCCC(=O)OCCNc1cc(Sc2nccn2C)c2nonc2c1[N+](=O)[O-] | inconclusive: 20 µM [inhibitor, single point]
COc1ccc(Cl)cc1NC(=O)CN1CCCC1 | inactive
CCC(=O)Nc1nonc1-c1nc2ccccc2n1Cc1cccc2ccccc12 | inconclusive: 1 µM [inhibitor, full curve, poor fit]
Cc1ccc(-c2c(C(=O)Nc3ccc(F)c(F)c3)oc(=O)c3ccccc23)cc1 | inactive
CC(C)Nc1nc(NCCOc2ccccc2Cl)c2sc(-c3ccccc3)cc2n1 | inconclusive: 35.5 µM [inhibitor, single point]
COCCN=c1scc(-c2ccc3c(c2)NC(=O)CO3)n1/N=C(\C)c1ccc(O)cc1 | inconclusive: 35.5 µM [inhibitor, single point]
CC(C)Nc1nc(Nc2ccccc2Cl)c2sccc2n1 | inactive
O=[N+]([O-])c1ccc(S(=O)(=O)c2cccc(C(F)(F)F)c2)nc1 | inconclusive: 35.5 µM [inhibitor, single point]
OCCOCCn1c(C2CCCN2c2nc(-c3ccc(F)cc3)cs2)nc2cc(C(F)(F)F)ccc21 (stereo not drawn) | inactive
CCC1Sc2ccc(S(=O)(=O)CCC(=O)Nc3ccccc3Cl)cc2NC1=O (stereo not drawn) | inactive
C=CC(C)(C)c1[nH]cnc1/C=C1\NC(=O)C(C(C)C)NC1=O (stereo not drawn) | inconclusive: 10 µM [inhibitor, partial curve, poor fit]
O=S(=O)(CCN1CCOCC1)c1ccc(Cl)cc1 | inactive
CC[n+]1c(/C=C/Nc2ccccc2)oc2ccc(OC)cc21 | inconclusive: 17.8 µM [inhibitor, partial curve, poor fit]
Nc1nsc2ccccc12 | inconclusive: 11.2 µM [inhibitor, single point]
Oc1ccccc1-c1cc(-c2ccccc2Cl)[nH]n1 | inconclusive: 15.8 µM [inhibitor, single point]
CC(=O)Nc1cccc(-c2ccnc3c2CC(C)(C(=O)Nc2ccc(Cl)cc2)O3)c1 (stereo not drawn) | inconclusive: 2.51 µM [inhibitor, partial curve, poor fit]
Cc1ccn2c(NC3CCCC3)c(-c3ccncc3)nc2c1 | inactive
COc1ccc(-c2cc(NC(C)=O)c3ncc(-c4ccc(OC)c(OC)c4)n3c2)cc1OC | inconclusive: 22.4 µM [inhibitor, single point]
